The text below walks through data of patent US12365664B2, “Small molecule inhibitors of SRC tyrosine kinase” (Dana-Farber Cancer Institute, Inc., priority 2019, dated 2025).

By IC50 is commonly meant the concentration that inhibits the measured activity by half. High values mean a need for much substance, low ones inhibition by little substance.

One assay deals with SRC (Homo sapiens (Human), UniProt P12931). The experiment in a line: SelectScreen Kinase Profiling Services commercial assay (ThermoFisher), SRC. Type of assay: biochemical.
The target of a further assay is YES1 (Homo sapiens (Human), UniProt P07947). The experiment in a line: SelectScreen Kinase Profiling Services commercial assay (ThermoFisher), YES1. Format: biochemical.
In another assay the test system is p-SRC^Y416. Nature of the assay: Signaling analysis under washout conditions (pSRC Y416 Western blot). Particulars: H1975 cells, 1 μM for 2 h, drug washout, lysed 0 h, 2 h and 4 h post-washout.

Molecules are shown by their SMILES.

Chain of UniProt P07947 (P07947 whole entry): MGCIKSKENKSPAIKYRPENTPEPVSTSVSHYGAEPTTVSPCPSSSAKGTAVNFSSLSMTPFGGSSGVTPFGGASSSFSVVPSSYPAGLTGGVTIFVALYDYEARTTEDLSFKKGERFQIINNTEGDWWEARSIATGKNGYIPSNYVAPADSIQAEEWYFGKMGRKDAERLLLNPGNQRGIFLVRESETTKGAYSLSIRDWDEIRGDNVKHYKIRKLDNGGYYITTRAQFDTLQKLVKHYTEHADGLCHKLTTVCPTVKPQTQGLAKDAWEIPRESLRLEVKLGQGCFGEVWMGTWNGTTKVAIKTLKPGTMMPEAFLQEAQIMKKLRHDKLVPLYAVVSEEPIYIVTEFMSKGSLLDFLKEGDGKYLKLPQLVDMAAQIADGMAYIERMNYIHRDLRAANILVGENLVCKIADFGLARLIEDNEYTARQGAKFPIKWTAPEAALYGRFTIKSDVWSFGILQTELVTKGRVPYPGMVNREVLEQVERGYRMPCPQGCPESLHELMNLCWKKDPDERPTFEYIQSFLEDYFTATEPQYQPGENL
Chain of UniProt P12931 (P12931 whole entry): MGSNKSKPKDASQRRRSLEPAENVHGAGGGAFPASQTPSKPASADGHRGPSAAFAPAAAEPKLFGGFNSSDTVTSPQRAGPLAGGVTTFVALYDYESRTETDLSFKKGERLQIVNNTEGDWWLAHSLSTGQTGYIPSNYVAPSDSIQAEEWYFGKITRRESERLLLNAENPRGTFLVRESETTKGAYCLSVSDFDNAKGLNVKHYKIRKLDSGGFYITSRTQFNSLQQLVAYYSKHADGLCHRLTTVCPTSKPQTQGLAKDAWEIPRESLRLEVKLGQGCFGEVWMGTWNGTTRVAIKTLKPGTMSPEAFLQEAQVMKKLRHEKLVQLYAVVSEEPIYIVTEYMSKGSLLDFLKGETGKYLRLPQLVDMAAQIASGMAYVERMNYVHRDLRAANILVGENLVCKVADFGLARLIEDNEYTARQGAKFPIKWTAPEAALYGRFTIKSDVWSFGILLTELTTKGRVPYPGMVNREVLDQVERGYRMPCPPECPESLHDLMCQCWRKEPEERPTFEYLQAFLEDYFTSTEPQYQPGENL

Consider `C=CC(=O)Nc1ccccc1Nc1nc(Nc2ccc(N3CCN(C)CC3)cc2)ncc1I` [Compound 5, N-{2-[(5-iodo-2-{[4-(4-methylpiperazin-1-yl)phenyl]amino}pyrimidin-4-yl)amino]phenyl}prop-2-enamide], for which the IC50 at SRC and on YES1 was 1 to 10 nM each time.
Consider `C=CC(=O)Nc1ccccc1Nc1nc(Nc2ccc(N3CCN(C)CC3)cc2)ncc1C(=O)Nc1ccc(Oc2ccccc2)cc1` [Compound 20, 4-((2-acrylamidophenyl)amino)-2-((4-(4-methylpiperazin-1-yl)phenyl)amino)-N-(4-phenoxyphenyl)pyrimidine-5-carboxamide], for which the IC50 against SRC and against YES1 was 1000 to 10000 nM in each case.
As to `C=CC(=O)Nc1ccc(C(C)C)cc1Nc1nc(Nc2ccc(N3CCN(C)CC3)cc2)ncc1C(=O)Nc1c(C)cccc1Cl` [Compound 37, N-(2-chloro-6-methylphenyl)-2-{[4-(4-methylpiperazin-1-yl)phenyl]amino}-4-{[2-(prop-2-enamido)-5-(propan-2-yl)phenyl]amino}pyrimidine-5-carboxamide], the IC50 was in the range of 100 to 1000 nM against SRC and 1 to 10 nM at YES1.
In the case of `C=CC(=O)Nc1ccccc1Nc1nc(Nc2ccc(N3CCN(C)CC3)cc2)nc2ccoc12` [Compound 12, N-{2-[(2-{[4-(4-methylpiperazin-1-yl)phenyl]amino}furo[3,2-d]pyrimidin-4-yl)amino]phenyl}prop-2-enamide], the IC50 on SRC lay within 10 to 100 nM; on YES1, 1 to 10 nM.
In the same order, the values of `C=CC(=O)Nc1ccccc1Nc1nc(Nc2ccc(N3CCN(C)CC3)cc2)ncc1C1CC1` [Compound 1, N-{2-[(5-cyclopropyl-2-{[4-(4-methylpiperazin-1-yl)phenyl]amino}pyrimidin-4-yl)amino]phenyl}prop-2-enamide] are 1 to 10 nM and 1 to 10 nM.
The like results for `C=CC(=O)Nc1ccccc1Nc1nc(Nc2ccc(N3CCN(C)CC3)cc2)ncc1-c1ccoc1` [Compound 10, N-(2-((5-(furan-3-yl)-2-((4-(4-methylpiperazin-1-yl)phenyl)amino)pyrimidin-4-yl)amino)phenyl)acrylamide] were, in that order, 1 to 10 nM and under 1 nM.
The like results for `C=CC(=O)Nc1ccccc1Nc1nc(Nc2ccc(N3CCN(C)CC3)cc2)ncc1-c1ccc(Oc2ccccc2)cc1` [Compound 7, N-(2-((2-((4-(4-methylpiperazin-1-yl)phenyl)amino)-5-(4-phenoxyphenyl)pyrimidin-4-yl)amino)phenyl)acrylamide] were, in that order, 1 to 10 nM and 1 to 10 nM.
As for `C=CC(=O)Nc1cccc(F)c1Nc1nc(Nc2ccc(N3CCN(C)CC3)cc2)ncc1Cl` [Compound 38, N-{2-[(5-chloro-2-{[4-(4-methylpiperazin-1-yl)phenyl]amino}pyrimidin-4-yl)amino]-3-fluorophenyl}prop-2-enamide], the IC50 against SRC and against YES1 was 1 to 10 nM in each case.
On to `C=CC(=O)Nc1ccccc1Nc1nc(Nc2ccc(N3CCN(C)CC3)cc2)ncc1Br` [Compound 3, N-{2-[(5-bromo-2-{[4-(4-methylpiperazin-1-yl)phenyl]amino}pyrimidin-4-yl)amino]phenyl}prop-2-enamide], for which the IC50 at SRC and at YES1 was 1 to 10 nM throughout.
Turning to `C=CC(=O)Nc1cccc(C)c1Nc1nc(Nc2ccc(N3CCN(C)CC3)cc2)ncc1C(=O)Nc1c(C)cccc1Cl` [Compound 36, N-(2-chloro-6-methylphenyl)-4-{[2-methyl-6-(prop-2-enamido)phenyl]amino}-2-{[4-(4-methylpiperazin-1-yl)phenyl]amino}pyrimidine-5-carboxamide], the concentration for half-maximal inhibition (IC50) against SRC fell in the range of 100 to 1000 nM; on YES1 it was 1 to 10 nM.
As for `C=CC(=O)Nc1c(C)cccc1Nc1nc(Nc2ccc(N3CCN(C)CC3)cc2)ncc1Cl` [Compound 34, N-{2-[(5-chloro-2-{[4-(4-methylpiperazin-1-yl)phenyl]amino}pyrimidin-4-yl)amino]-6-methylphenyl}prop-2-enamide], the half-inhibitory concentration (IC50) at SRC and against YES1 was 1 to 10 nM in each case.
For the compound `C=CC(=O)Nc1ccccc1Nc1nc(Nc2ccc(N3CCN(C)CC3)cc2)ncc1C(=O)Nc1c(C)cccc1Cl` [Compound 18, 4-((2-acrylamidophenyl)amino)-N-(2-chloro-6-methylphenyl)-2-((4-(4-methylpiperazin-1-yl)phenyl)amino)pyrimidine-5-carboxamide], the “inhibition of p-SRC^Y416 signaling post-washout” value with p-SRC^Y416 was “potent and sustained inhibition”.
With `C=CC(=O)Nc1ccccc1Nc1nc(Nc2ccc(N3CCN(C)CC3)cc2)ncc1C(=O)Nc1c(Cl)cccc1Cl` [Compound 27, N-(2,6-dichlorophenyl)-2-{[4-(4-methylpiperazin-1-yl)phenyl]amino}-4-{[2-(prop-2-enamido)phenyl]amino}pyrimidine-5-carboxamide], the half-maximal inhibitory concentration (IC50) on SRC was 1 to 10 nM; against YES1, under 1 nM.
In the same order, the values of `C=CC(=O)Nc1cc(C)ccc1Nc1nc(Nc2ccc(N3CCN(C)CC3)cc2)ncc1Cl` [Compound 33, N-{2-[(5-chloro-2-{[4-(4-methylpiperazin-1-yl)phenyl]amino}pyrimidin-4-yl)amino]-5-methylphenyl}prop-2-enamide] are 1 to 10 nM and 1 to 10 nM.
For the compound `C=CC(=O)Nc1ccc(F)cc1Nc1nc(Nc2ccc(N3CCN(C)CC3)cc2)ncc1C(=O)Nc1c(C)cccc1Cl` [Compound 41, N-(2-chloro-6-methylphenyl)-4-{[5-fluoro-2-(prop-2-enamido)phenyl]amino}-2-{[4-(4-methylpiperazin-1-yl)phenyl]amino}pyrimidine-5-carboxamide], the half-maximal inhibitory concentration (IC50) on SRC is 1 to 10 nM; against YES1, under 1 nM.
The like results for `C=CC(=O)Nc1ccccc1Nc1nc(Nc2ccc(N3CCN(C)CC3)cc2)ncc1OCc1ccc(Oc2ccccc2)cc1` [Compound 16, N-(2-((2-((4-(4-methylpiperazin-1-yl)phenyl)amino)-5-((4-phenoxybenzyl)oxy)pyrimidin-4-yl)amino)phenyl)acrylamide] were, in that order, 1 to 10 nM and 1 to 10 nM.
On to `C=CC(=O)Nc1ccccc1Nc1nc(Nc2ccc(N3CCN(C)CC3)cc2)ncc1-c1ccc(C(C)=O)cc1` [Compound 8, N-(2-((5-(4-acetylphenyl)-2-((4-(4-methylpiperazin-1-yl)phenyl)amino)pyrimidin-4-yl)amino)phenyl)acrylamide], for which the IC50 against SRC and on YES1 was 1 to 10 nM each time.
